# According to PubChem BioAssay AID2202238 (Ras Initiative Chemistry Research Team, Frederick National …, 2025):
# The other results are listed elsewhere or left out. Shown are side measurements of this screen, not its main read-out; they come without a call.
# Molecular target: GTPase KRas (Homo sapiens) (UniProt P01116)
# Test: Cysteine mutants labelled by reactive fragments (mass read-out) (AID 2202238)
# Design: protein at 5 µM with 500 µM competing thiol for 1.5 h
# Conditions: KRAS G12D cysteine mutants, disulfide tethering, MALDI-TOF labeling, stronger effect = higher value, fragment at 500 µM
# [1] = measured here: G75C mutant labeling
# [2] = measured here: H94C mutant labeling
# [3] = measured here: I36C mutant labeling
# [4] = measured here: L120C mutant labeling
# [5] = measured here: M67C mutant labeling
# [6] = measured here: M72C mutant labeling
# [7] = measured here: N86C mutant labeling
# [8] = measured here: P121C mutant labeling
# [9] = measured here: S122C mutant labeling
# [10] = measured here: S136C mutant labeling
# [11] = measured here: G60C mutant labeling
# [12] = measured here: N26C mutant labeling
# UniProt P01116, sequence (P01116 whole entry, looked up, the tested form may be a part): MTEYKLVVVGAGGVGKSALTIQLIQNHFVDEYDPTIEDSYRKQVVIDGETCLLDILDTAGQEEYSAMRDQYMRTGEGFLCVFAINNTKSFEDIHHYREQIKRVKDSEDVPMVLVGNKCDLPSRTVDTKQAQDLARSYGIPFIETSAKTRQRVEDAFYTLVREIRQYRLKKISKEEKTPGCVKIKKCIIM
SMILES,percent labeling [1] [%],percent labeling [2] [%],percent labeling [3] [%],percent labeling [4] [%],percent labeling [5] [%],percent labeling [6] [%],percent labeling [7] [%],percent labeling [8] [%],percent labeling [9] [%],percent labeling [10] [%],percent labeling [11] [%],percent labeling [12] [%]
CN(C)Cc1ccc(CNC(=O)CCS)s1,12.2,27.7,53,30.3,41.3,19.9,15.8,28.1,29.2,48.4,,
O=C(CCS)N1CCC(c2ncccc2Cl)CC1,24.3,45.3,38.2,37.8,49.7,55.1,33.1,38.7,37.9,64.8,,
O=C(NCCS)C1CCN(C(=O)c2ccc(-c3ncccn3)cc2)CC1,16.5,34.7,20.7,28.2,29.3,29.6,22.4,27.3,33.3,35.8,33.5,41.6
COCc1nc(CNC(=O)CCS)c(-c2ccccc2)s1,14.6,36,32.8,27.2,36.1,36,25.9,30.8,21.6,56.3,,
CCc1cccc2c(F)c(C(=O)NCCS)[nH]c12,12.1,8.9,6.6,14,8,30.2,10.1,9.8,10,15.7,12.6,19.9
Cc1c(C(=O)NCCS)cnc2c1c(=O)n(C)c(=O)n2C,25.9,37.1,35.6,34.8,48.7,74.4,29.7,33.9,29.9,49.4,51.3,58.5
O=C(CCS)Nc1cnn(CC(=O)NC2CC2)c1,17.4,26.5,37,26.8,32,24.9,31.7,30.8,39.4,45.2,,
O=C(CCS)NCC(=O)Nc1ccccc1Br,13.8,31.5,34,39.4,39.5,39,29.2,30.8,31.7,43.2,,
CN1CCN(C2(C(=O)NCCS)CCCC2)CC1,15.5,41.5,35.5,29.5,42.3,22.2,32.3,33.8,31.9,53.1,38.4,37.4
O=C(CCS)Nc1ccc(-c2nnc3n2CCCCC3)cc1,17,27.2,28.1,28.1,29.8,37.5,21.8,26.1,25.2,37.9,,
COc1ccc(OC)c(C2CC2C(=O)NCCS)c1 (stereo not given),19.1,23.2,20.3,31.7,20.5,31.5,19.2,24.5,23.3,51.4,30.4,39.2
O=C(NCCS)C1(Cc2cn[nH]n2)CCCC1,12.6,30.3,22.5,30.4,25.7,20.7,34.1,31.7,30,41.3,35.6,40.3
CC(C)c1cc(C(=O)NCCS)c(C(C)C)[nH]1,6.1,12.4,7.6,19.5,11.6,7.7,6.3,11,8.9,18.8,10.7,16
CCn1nccc1C1CCN(C(=O)CCS)CC1,15.7,33.5,34.7,36.2,41.3,24.2,14.5,34.5,35.2,60.3,,
O=C1CN(S(=O)(=O)c2cccc(NC(=O)CCS)c2)CCN1,24.7,35.8,39.8,32.8,31.4,41.8,66.9,27.1,43.2,47.8,,
O=C(NCCS)C(c1ccccc1)n1cnc2ccccc21 (stereo not given),5.1,16.2,17.4,18.2,23.7,17.9,8.6,14.8,14.2,40.1,28.1,28.6
NC(=O)c1ccccc1OCc1cccc(C(=O)NCCS)c1,11.7,19,14.6,17.8,14.8,60.8,10.5,10.5,8.9,19.6,23.5,33.4
CN(Cc1coc2cc(F)cc(F)c12)C(=O)CCS,35,35.4,32,21.6,34.4,47.2,23.4,27.1,21.8,43.1,,
CN1C(=O)CC(C(=O)NCCS)c2ccccc21 (stereo not given),13.9,29.9,27.2,44.8,32.4,25.4,20.6,30.4,31.9,57.2,37.9,35.2
O=C(CCS)N1CCC(n2cccn2)CC1,12.8,27.6,32.6,28.4,31.3,19.1,22.4,35.9,36.4,52.8,,
O=C(CCS)N1CCC(c2ccc(F)cc2Cl)CC1,21.9,21.9,18.9,15.7,18.6,46.2,20.1,18.7,14.2,28.3,,
CN(c1cc(C(=O)NCCS)ccn1)C1CCCC1,14.8,12.9,10.6,14.7,14.4,48.1,10.4,12,11,31.3,17.1,36.3
CCc1ccc(C2COCCN2C(=O)CCS)o1 (stereo not given),21.8,51.8,44,33.5,46.2,45,34.2,39.8,36,64.2,,
O=C(NCCS)c1cccc2ccn(Cc3ccccc3)c12,14.4,19.2,14.1,14,11.7,30.1,13.4,14.6,9.9,15.3,45,26.3
COCCn1cc(C(=O)NCCS)c(=O)cc1C,13.3,31.7,22.2,46.9,37.6,41.6,24.3,29.7,32.9,49.3,32,34.2
COC(=O)c1cnc(CC2CCN(C(=O)CCS)CC2)s1,15,33.9,35.4,31.1,40.5,32.5,26.5,33.2,32,53.1,,
O=C(CCS)NCc1cnc(-c2ccccc2)[nH]1,16,24.3,32.4,36.7,57.6,33.2,21.7,39.3,34.5,48.7,,
CN(C)C(=O)Cc1ccc(S(=O)(=O)N2CCC(C(=O)NCCS)CC2)cc1,16.6,29.6,27.6,31.1,31.4,18.8,25.7,29.8,31.3,41.9,28.7,39.7
O=C(CCS)NCc1noc2cc(F)ccc12,26.2,36,39.6,28.9,40.2,43.3,31.2,31.6,31.2,45.4,,
O=C(Cc1cc2cc(Cl)ccc2[nH]1)NCCS,8.9,12.9,9.6,14.6,8.6,18.1,8.2,10.7,8,11.1,28.3,21
